In PubChem BioAssay (NCI):
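48-hour exposure; five concentrations; linearly interpolated endpoints. GI50 marks 50% less growth. TGI: total growth inhibition.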

system: NCI-H322M lung; experiment: NCI tumour cell line growth inhibition, 48 h

Row | SMILES | TGI [µM] | GI50 [µM]
1 | Cc1cccc(NC(=O)/C=C/c2ccc([N+](=O)[O-])cc2)c1 | > 55.3 | –
2 | COc1ccc(-n2c(=O)n(-c3ccccc3)c(=O)n2-c2ccc(OC)cc2)cc1 | > 100 | –
3 | C#CC1(O)CCC2[C@@H]3CCc4cc(Oc5nc(F)nc(-c6c7ccccc7cn6C)n5)ccc4C3CC[C@@]21C (some centres undefined) | > 100 | –
4 | CC(=O)C(=[N+]=[N-])C(=O)N(C)CCC#N | > 10 | –
5 | COc1cc(-n2ccnc2)cc(OC)c1OC | > 100 | 30.5
6 | CCOC(=O)c1cc(C2CCN(c3ccccc3)C2=O)c(C(=O)/C=C(/C)N)[nH]1 (centres undefined) | > 100 | –
7 | CCS(=O)(=O)c1ccc(OC)c(Nc2ncc(-c3ccccc3Cl)o2)c1 | > 25 | 24.6
8 | Cn1c(=S)c2[nH]c(SCCN3C(=O)c4ccccc4C3=O)nc2n(C)c1=O | > 100 | –
9 | CCn1c2ccccc2c2ccc(C3C(C(=O)OC)=C(C)NC(C)=C3C(=O)OC)cc21 | > 100 | –
10 | O=C(Nc1nnc(-c2c(Cl)c(Cl)c(Cl)c(Cl)c2-c2nc3cc(C(=O)c4ccccc4)ccc3[nH]2)o1)c1ccc(Cl)cc1 | > 100 | –
11 | CC[C@H](C)C1=C(O)[N@+]2([O-])Oc3ccc(-c4c(O)c(O)c(-c5ccc(O)cc5)c(OC(C)=O)c4OC(C)=O)cc3O[C@]2([C@@H](C)CC)C(=O)N1O | > 50 | –
12 | CCN(CC)CCn1[nH]c2c3ccc(=O)cc3sc3c(NCCN)ccc1c32 | 3.29 | –
13 | c1ccc2c(c1)ccn1ccc3c4ccccc4nc-3c21 | 1.78 | –
14 | COc1ccc(C(CC(=O)c2ccccc2)C(C(=O)c2ccccc2)C(c2ccc(OC)cc2)C2C(=O)NC(=S)NC2=O)cc1 (centres undefined) | 54 | 12.5
15 | COC(=O)/C=c1\s/c(=C\C(=O)OC)c2ccccc12 | > 100 | –
16 | COc1ccc2[nH]c3c(C)cc([N+](=O)[O-])c(C)c3c2c1 | 79.6 | –
17 | COc1ccccc1NCc1cccc2c(=O)c3ccc(Cl)cc3oc12 | > 100 | –
18 | Cc1ccc(-c2nc([P+](c3ccccc3)(c3ccccc3)c3ccccc3)c(Nc3ccccc3)o2)cc1 | 2.11 | 0.882
19 | COC(=O)[C@@H]1CC(C(CN)c2cn(C(=O)OC(C)(C)C)c3ccccc23)C(=O)N1C(=O)OC(C)(C)C (some centres undefined) | > 100 | –
20 | Nc1nc(=O)n([C@@H]2CS[C@H](CO)O2)cc1F | > 100 | > 100
21 | CCOC(=O)/C(=C/c1ccc(N(CCC#N)CCC#N)cc1C)NC(=O)/C=C/c1ccccc1 | > 100 | –
22 | O=C(OC/C=C1C=C(OC(=O)c2ccccc2)/C(=N/N(C(=O)c2ccccc2)c2ccccc2)O\1)c1ccccc1 | 22.8 | –
23 | CCOc1ccc(O)cc1[P+](c1ccccc1)(c1ccccc1)c1ccccc1 | 76.1 | –
24 | NC(=O)c1c(NC=O)ncn1C1OCC(O)C(O)C1O (centres undefined) | > 100 | –
25 | COc1ccc(C(=O)N/N=C/c2c(C)n(C)n(-c3ccccc3)c2=O)cc1 | > 100 | –

Row | SMILES | TGI [µM] | GI50 [µM]
26 | C[C@]12CCNC(=O)C=C1CC[C@@H]1C2CC[C@@]2(C)C1CC[C@@H]2OC(=O)COc1ccc(N(CCCl)CCCl)cc1 (some centres undefined) | 35.4 | –
27 | Cc1cc(=O)[nH]c(CNC(=O)c2cccc(C(=O)NCc3cc(=O)[nH]c(C)n3)c2)n1 | > 100 | –
28 | COc1cc2c(cc1C1=NC(C)(C)CO1)OCO2 | > 100 | –
29 | CCCN1C(=O)/C(=C\c2ccc(OC)c(OC)c2)SC1=Nc1ccccc1 | > 100 | –
30 | C[C@@H]1COCCN1c1cc(C2([S@@](C)(=N)=O)CC2)nc(-c2ccnc3[nH]ccc23)n1 | > 44.1 | 2.86
31 | Cc1ccc(O)c(C2=CC(c3cccc(Br)c3)SC(N)=N2)c1 (centres undefined) | > 100 | –
32 | CC1NC(=O)C2=C1C(N)=NC(=O)C2 (centres undefined) | > 100 | –
33 | COC1CCC(=O)N1CN(C(C)=O)c1ccc(C)cc1 (centres undefined) | > 100 | –
34 | CN(C)c1ccc(/C=c2/c3ccccc3n3c2c2cc(F)ccc2[n+]3C)cc1 | 17.6 | –
35 | CCC(O)c1ccc(N=Cc2ccccc2O)cc1 (centres undefined) | > 100 | –
36 | Nc1ccc(-c2nc3ccccc3s2)cc1C#Cc1ccccc1 | 52.2 | –
37 | CC(=O)NNc1nc(C)c(C(=O)NNC(=O)C(=O)Nc2ccc([N+](=O)[O-])cc2C#N)s1 | > 100 | –
38 | Cc1cc(O)c(/C=N/C(=S)Nc2ccccc2)c(=O)o1 | > 100 | –
39 | O=C(Nc1cccc2ccccc12)c1ccccc1 | > 100 | –
40 | COc1cccc(C2C3=C(COC3=O)N(CCO)c3cc4c(cc32)OCO4)c1 (centres undefined) | > 50 | 2.12
41 | CCN1C[C@]2(COC)[C@H](O)C[C@H](OC)[C@]34C1[C@H]([C@H](OC)[C@H]23)[C@]1(OC(C)=O)[C@H]2[C@@H](OC(=O)c3ccccc3)[C@](O)(C[C@H]24)[C@@H](OC)[C@@H]1O | > 100 | –
42 | O=C(NCc1ccco1)c1cccc(NC2=C(Cl)C(=O)N(Cc3ccccc3)C2=O)c1 | 60.9 | 20.2
43 | CN(C)CCNC(=O)c1cccc2ccc(-c3ccc(-c4ccccc4)cc3)nc12 | 25 | –
44 | O=C1c2ccccc2C(=O)c2c(NCC3CO3)ccc(NCC3CO3)c21 (centres undefined) | > 53.2 | –
45 | CCOC(=O)c1cnn2c3ccccc3n(S(=O)(=O)c3ccc(OC)cc3)c12 | > 100 | 1.81
46 | Cc1ccc(NC(=O)/C(=N/N(C)C)C(C2OC(=O)c3ccccc32)[N+](=O)[O-])cc1 (centres undefined) | > 100 | –
47 | CN1C(=O)CC2CCC(=O)N2c2cccnc21 (centres undefined) | > 100 | –
48 | Cc1cccc2c(N)c3cccc(C(=O)NCC[N+]4(Cc5ccc([N+](=O)[O-])cc5)CCOCC4)c3nc12 | > 100 | –
49 | Cc1c(N2C(=O)/C(=C/c3ccc(N(CCC#N)CCC#N)cc3)N=C2c2ccccc2)c(=O)n(-c2ccccc2)n1C | > 100 | –
50 | C=CCOc1ccccc1C1(O)c2ccccc2C2=NCCCN21 (centres undefined) | > 100 | –
